Assay results published in the supplement of paper PMC5655136.
Values come from read counts of a selection and are noisy.

Tested on: NB7
Assay: fold depletion of shRNA, plasmid library share / infected cells without Dox share (9 days) (ratio); higher = more depleted after infection (more toxic, leaky expression from a Tet-inducible vector; NB7 is a neuroblastoma line without caspase-8)
[1] = shRNA pool: CD95 ORF + CD95 3'UTR + Venus libraries
[2] = shRNA pool: CD95L ORF + CD95L 3'UTR + Venus libraries
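Also: shRNA barcodes quantified by deep sequencing of PCR amplicons from cellular DNA, counts expressed as percent of each subpool, ratio averaged over two biological duplicates.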

| Sequence | fold depletion of shRNA [1] | fold depletion of shRNA [2] |
| --- | --- | --- |
| GAATACCAAGTGCAGATGTAA | 1.22 |  |
| GAATATGACGGAAGAACATAG |  | 1.67 |
| GAATCAATAGAAGAAGCTATG | 1.98 |  |
| GAATCTCCAACTTTAAATCCT | 0.496 |  |
| GAATGACAATGTCCAAGACAC | 1.22 |  |
| GAATGCACACTCACCAGCAAC | 0.969 |  |
| GAATGGTGTCAATGAAGCCAA | 3.48 |  |
| GAATGTAATCAGTGTATGTTA | 0.907 |  |
| GAATGTAGATATTGTGAAGTA |  | 0.795 |
| GAATGTTGTATTCAGTGAGGG |  | 2.74 |
| GAATTATAAAATATAGGTAAA | 0.663 |  |
| GAATTCACATAGAAAACATTA | 1.04 |  |
| GAATTGAGGAAGACTGTTACT | 0.924 |  |
| GAATTGCTCTTGTCATACCCC | 1.24 |  |
| GAATTTAAATAAGGCTCTACC | 0.901 |  |
| GAATTTTAAGAAATAATATTT | 1.33 |  |
| GACAAAGCCCATTTTTCTTCC | 1.75 |  |
| GACAAATGGAGGAATATGACG |  | 1.21 |
| GACAACCACTACCTGAGCTAC | 2.24 | 2.16 |
| GACAAGCAGAAGAACGGCATC | 0.984 | 1.5 |
| GACAATCAACTCTAATAGTGC |  | 3.11 |
| GACAATGTCCAAGACACAGCA | 2.15 |  |
| GACACAGCAGAACAGAAAGTT | 1.79 |  |
| GACACATTGATTAAAGATCTC | 0.765 |  |

| Sequence | fold depletion of shRNA [1] | fold depletion of shRNA [2] |
| --- | --- | --- |
| GACACCCTGGTGAACCGCATC | 1.52 | 1.61 |
| GACACCTATGGAATTGTCCTG |  | 3.07 |
| GACACCTTTTAACTCACCTCT |  | 1.4 |
| GACACTAAGTCAAGTTAAAGG | 1.08 |  |
| GACAGCAGTGCCAGCTCTCCC |  | 0.659 |
| GACATCAACTCCAAGGGATTG | 2.28 |  |
| GACATGAACCAAGTGGACCTT |  | 3.89 |
| GACATGGCTTAGAAGTGGAAA | 1.19 |  |
| GACATGTCATGAACCCATGTT | 8.66 |  |
| GACATTACTAGTGACTCAGAA | 1.01 |  |
| GACCACAGGGTTCAAAATGTC |  | 2.12 |
| GACCACATGAAGCAGCACGAC | 1.28 | 0.841 |
| GACCACCCTGGGCTACGGCCT | 1.37 | 1.94 |
| GACCACTACCAGCAGAACACC | 1.92 |  |
| GACCCAGAATACCAAGTGCAG | 1.46 |  |
| GACCCCAACGAGAAGCGCGAT | 0.869 | 1.2 |
| GACCCGCGCCGAGGTGAAGTT | 0.524 | 0.674 |
| GACCCTCCTACCTCTGGTTCT | 1.42 |  |
| GACCCTGAAGCTGATCTGCAC | 1.05 | 0.744 |
| GACCCTTGCACCAAATGTGAA | 1.61 |  |
| GACCGCCGCCGGGATCACTCT | 1.34 | 0.786 |
| GACCTGAGGATTTAAGGGATG |  | 2.93 |
| GACCTTGAGACCACAGGGTTC |  | 1.46 |
| GACCTTTGCACAGTTTATTGG | 0.866 |  |

| Sequence | fold depletion of shRNA [1] | fold depletion of shRNA [2] |
| --- | --- | --- |
| GACCTTTTGCTGAAATATCAG | 2.48 |  |
| GACGACGGCAACTACAAGACC | 0.864 | 0.697 |
| GACGGAAGAACATAGAACTCT |  | 1.12 |
| GACGGCAACATCCTGGGGCAC | 0.66 | 0.732 |
| GACGGCAACTACAAGACCCGC | 0.89 | 0.667 |
| GACGGCCCCGTGCTGCTGCCC | 0.706 | 0.698 |
| GACGGCGACGTAAACGGCCAC | 1.22 | 0.674 |
| GACGGCGGCGTGCAGCTCGCC | 0.743 | 0.557 |
| GACGTAAACGGCCACAAGTTC | 1 | 0.738 |
| GACGTTTTTCGGCTTATATAA |  | 1.35 |
| GACTAAAGAGAGAATGTAGAT |  | 0.707 |
| GACTAGAGGCTTGCATAATAA |  | 1.19 |
| GACTATCATCCTCAAGGACAT | 1.42 |  |
| GACTATTATATATGTGTATGC | 1.1 |  |
| GACTCAGAAAATTCAAACTTC | 1.04 |  |
| GACTCAGAACTTGGAAGGCCT | 0.893 |  |
| GACTCATTTCATTCCTAACAC |  | 1.85 |
| GACTGACATCAACTCCAAGGG | 2.5 |  |
| GACTGCACAGTCAATGGGGAT | 3.82 |  |
| GACTGCCCTTAGAAATTCTAG | 4.2 |  |
| GACTGCGTGCCCTGCCAAGAA | 1.25 |  |
| GACTGTCTTTCAGATACATGG |  | 1.05 |
| GACTGTTACTACAGTTGAGAC | 1.08 |  |
| GACTTCAAGGAGGACGGCAAC | 0.352 | 0.496 |

| Sequence | fold depletion of shRNA [1] | fold depletion of shRNA [2] |
| --- | --- | --- |
| GACTTCTTCAAGTCCGCCATG | 2.75 | 0.642 |
| GACTTGAGTAAATATATCACC | 1.17 |  |
| GAGAAAATTCAGACTATCATC | 1.73 |  |
| GAGAAAGGAAGTACAGAAAAC | 1.11 |  |
| GAGAAAGTAGCTTTGTGACAT | 1.29 |  |
| GAGAAGATCATATTTATGTAA | 0.705 |  |
| GAGAAGCAAATAGGCCACCCC |  | 0.467 |
| GAGAAGCACTTTGGGATTCTT |  | 0.751 |
| GAGAAGCATGAAAAAGCAGCT |  | 0.483 |
| GAGAAGCGCGATCACATGGTC | 0.933 | 0.746 |
| GAGAATGTAGATATTGTGAAG |  | 1.07 |
| GAGAATGTTGTATTCAGTGAG |  | 1.55 |
| GAGACCACAGGGTTCAAAATG |  | 6.57 |
| GAGACTCAGAACTTGGAAGGC | 1.49 |  |
| GAGAGAATGTAGATATTGTGA |  | 1.37 |
| GAGAGATGTTTTGGGGACTCA |  | 9.46 |
| GAGAGTATTACTAGAGCTTTG | 0.915 |  |
| GAGAGTATTTAGGCAGATTGA |  | 2.56 |
| GAGATACTAACTGCTCTCAGA | 1.18 |  |
| GAGATCAAGAATGACAATGTC | 3.25 |  |
| GAGATTTTACCATATTTCTAA | 0.943 |  |
| GAGCAAAGACCCCAACGAGAA | 1.09 | 1.59 |
| GAGCAAGGGCGAGGAGCTGTT | 1.05 | 1.61 |
| GAGCAGGAGAGTATTACTAGA | 0.77 |  |

| Sequence | fold depletion of shRNA [1] | fold depletion of shRNA [2] |
| --- | --- | --- |
| GAGCCAACATATTTGTAGATT | 1.21 |  |
| GAGCCACAAGGTCTACATGAG |  | 1.02 |
| GAGCGCACCATCTTCTTCAAG | 0.939 | 1.03 |
| GAGCTACCAGTCCGCCCTGAG | 1.3 | 1.69 |
| GAGCTACTGCACTACTGGGCA |  | 2.55 |
| GAGCTCTCTCTGGTCAATTTT |  | 0.697 |
| GAGCTGAAGGGCATCGACTTC | 1.66 | 2.93 |
| GAGCTGAGGAAAGTGGCCCAT |  | 0.268 |
| GAGCTGGACGGCGACGTAAAC | 1.95 | 1.56 |
| GAGCTGTTCACCGGGGTGGTG | 1.92 | 2.03 |
| GAGCTTTGCCACCTCTCCATT | 0.338 |  |
| GAGGAAAGTGGCCCATTTAAC |  | 0.345 |
| GAGGAACTCTAAGTATCCCCA |  | 1.18 |
| GAGGAAGACTGTTACTACAGT | 1.59 |  |
| GAGGAATATGACGGAAGAACA |  | 1.55 |
| GAGGACGGCAACATCCTGGGG | 0.848 | 1.89 |
| GAGGACGGCGGCGTGCAGCTC | 0.469 |  |
| GAGGAGCTGTTCACCGGGGTG | 1.82 | 0.906 |
| GAGGATGAAAGATTAAGATTA | 1.26 |  |
| GAGGATTTAAGGGATGGAAAA |  | 1.18 |
| GAGGCCAATGCCCCACTGGCA |  | 1.87 |
| GAGGCTTGCATAATAAGCTAA |  | 1.75 |
| GAGGGAACCACAGCACAGGCC |  | 0.3 |
| GAGGGAGAAGCATGAAAAAGC |  | 0.889 |

| Sequence | fold depletion of shRNA [1] | fold depletion of shRNA [2] |
| --- | --- | --- |
| GAGGGCGACACCCTGGTGAAC | 1.05 | 0.491 |
| GAGGGCGAGGGCGATGCCACC | 1.87 |  |
| GAGGGCGATGCCACCTACGGC | 2.29 |  |
| GAGGGGAAGATGATGAGCTAC |  | 1 |
| GAGGGTCTTCTTACATGCATT |  | 2.63 |
| GAGGTCAAGTAAGAAGACATG |  | 0.786 |
| GAGGTGAAGTTCGAGGGCGAC | 1.43 | 0.84 |
| GAGTAAATATATCACCACTAT | 0.729 |  |
| GAGTACAACTACAACAGCCAC | 1.89 | 2.42 |
| GAGTACACAGACAAAGCCCAT | 0.928 |  |
| GAGTATATGCAATTAGTGTTT | 0.856 |  |
| GAGTATTACTAGAGCTTTGCC | 1.58 |  |
| GAGTATTTAGGCAGATTGAAA |  | 1.35 |
| GAGTCATGACACTAAGTCAAG | 1.98 |  |
| GAGTGAAAAACAACAAATTCA | 1.04 |  |
| GAGTGAAGTATAAGAAGGGTG |  | 0.521 |
| GAGTGCAGAATTTAAATAAGG | 0.88 |  |
| GAGTGTATGCAGAGGATGAAA | 2.4 |  |
| GAGTTCGTGACCGCCGCCGGG | 0.563 | 0.641 |
| GATAAAATAGATTCTTATTTT | 1.16 |  |
| GATAAGCAAGAGAGATGTTTT |  | 2.2 |
| GATAATTCTAGAGATTTTACC | 1.12 |  |
